Laboratory results reported in publication PMC4336329 (PLoS ONE, 2015).
Out of some 310,000 compounds screened, about 2,200 (0.71%) showed an effect of 50% or more. Effects have a minus sign here. Some of the results follow.

target: human ether-à-go-go-related gene (hERG) potassium channel (human, UniProt Q12809); test: primary screen, population patch clamp on CHO cells stably expressing hERG
Sequence (Q12809 whole entry, looked up): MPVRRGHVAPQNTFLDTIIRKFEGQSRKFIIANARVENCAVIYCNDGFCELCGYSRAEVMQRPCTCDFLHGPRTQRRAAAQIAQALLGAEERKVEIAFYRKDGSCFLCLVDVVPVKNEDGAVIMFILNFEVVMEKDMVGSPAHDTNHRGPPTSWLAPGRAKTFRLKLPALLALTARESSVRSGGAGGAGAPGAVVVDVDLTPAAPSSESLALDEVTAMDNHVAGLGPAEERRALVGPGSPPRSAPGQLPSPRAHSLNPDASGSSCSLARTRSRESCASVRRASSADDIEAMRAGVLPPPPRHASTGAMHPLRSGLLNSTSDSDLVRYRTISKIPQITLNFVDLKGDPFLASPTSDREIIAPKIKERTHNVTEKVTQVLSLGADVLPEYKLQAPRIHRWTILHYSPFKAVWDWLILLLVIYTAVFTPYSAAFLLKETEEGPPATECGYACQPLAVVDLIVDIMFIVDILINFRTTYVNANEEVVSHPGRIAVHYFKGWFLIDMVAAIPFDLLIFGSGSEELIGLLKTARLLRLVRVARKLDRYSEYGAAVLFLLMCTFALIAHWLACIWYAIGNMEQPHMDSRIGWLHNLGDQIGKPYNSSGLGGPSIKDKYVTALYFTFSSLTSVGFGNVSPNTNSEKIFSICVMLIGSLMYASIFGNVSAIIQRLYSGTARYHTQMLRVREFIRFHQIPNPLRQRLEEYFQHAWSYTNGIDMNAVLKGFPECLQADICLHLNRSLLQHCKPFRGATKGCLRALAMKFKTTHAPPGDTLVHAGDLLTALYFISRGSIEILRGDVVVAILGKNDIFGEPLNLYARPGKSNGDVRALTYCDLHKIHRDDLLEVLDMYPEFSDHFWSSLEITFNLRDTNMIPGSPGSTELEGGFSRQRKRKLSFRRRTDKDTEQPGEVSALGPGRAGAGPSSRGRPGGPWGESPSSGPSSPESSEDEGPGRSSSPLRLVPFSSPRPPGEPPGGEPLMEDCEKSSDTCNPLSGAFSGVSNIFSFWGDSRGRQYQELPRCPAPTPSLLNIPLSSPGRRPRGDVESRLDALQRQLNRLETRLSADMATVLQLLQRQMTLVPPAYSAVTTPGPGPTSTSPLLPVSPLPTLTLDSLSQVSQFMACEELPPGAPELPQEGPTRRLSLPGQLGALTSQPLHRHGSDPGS

SMILES	hERG current change (%, negative = inhibition) at 1uM [%]
Cc1cccc(Nc2nc(-c3ccc4c(c3)OCCO4)cs2)c1	0.816
CC1=CC(C)(C)N=C(Nc2ccc(C)cc2)S1	9.59
O=C(CCn1c(=S)[nH]c2ccccc2c1=O)NCCSCc1ccccc1	11.3
CCCCNC(=O)CS(=O)Cc1nc(-c2ccc(C)cc2)oc1C (stereo not drawn)	1.1
COc1cc(/C=N/NC(=O)c2cccc3ccccc23)cc(OC)c1O	13.8
COc1cc(C(=O)Nc2nnc(CC(C)C)s2)c([N+](=O)[O-])cc1OC	14
COC(=O)c1cc(OC)c(OC)cc1NC(=O)c1cc(C(C)(C)C)oc1C	7.4
O=C(NC1CCN(Cc2ccccc2)CC1)c1c(Cl)cccc1Cl	5.18
Cc1c(CCC(=O)O)c(=O)oc2cc(OCc3ccccc3Br)ccc12	13.5
Cc1ccc2c(c1)NC(=O)C(CC(=O)NCc1cccnc1)O2 (stereo not drawn)	2.51
O=c1c2ccccc2nc2n1CCS2	3.12
Cc1ccsc1C(=O)NC1CCCN(Cc2ccc(Cl)cc2)C1 (stereo not drawn)	7.38
CCc1cccc2c1NC1(CCCC1)CC2C.Cl (stereo not drawn)	15.7
Cc1cc2ncn(N)c2cc1C	-8.07
c1ccc(COC2CCCN(Cc3nc(-c4cnccn4)no3)C2)nc1 (stereo not drawn)	5.9
COC(=O)c1ccc(-c2ccco2)n1Cc1ccccc1Cl	2.96
CCOC(=O)c1nnc(-c2ccc(C)cc2)nc1Oc1ccc(Cl)cc1Cl	4.36
O=C(CNC(c1ccccc1)c1ccccc1)Nc1ccc(F)cc1	3.51
Cc1ccc2c(c1)C(c1ccncc1)=NNC(c1ccccc1)=N2	12.7
Cc1ccccc1/C=N/N1CCN(c2ccccc2)CC1	0.997
Nc1nc(CN2CCC(Cc3ccccc3)CC2)nc(Nc2ccccc2)n1	-87.4
COCCN(C(=O)c1cc(OC)c(OC)c(OC)c1)c1c(N)n(Cc2ccccc2)c(=O)[nH]c1=O	21.4
Cc1nc2c(cc(Oc3ccc(S(=O)(=O)N4CCOCC4)cn3)c3ccsc32)s1	5.91

SMILES	hERG current change (%, negative = inhibition) at 1uM [%]
CCC(C)(C)n1nnnc1C(c1ccc2ncccc2c1)N1CCCC(C)C1 (stereo not drawn)	6.04
Cc1ccc(S(=O)(=O)Nc2cc(=O)[nH]c(SCc3ccccc3Cl)n2)cc1	11.4
Cc1ccc(C(=O)Oc2ccc(Br)cc2C(=S)N2CCOCC2)cc1	9.3
CCN(CC)CCCN(C(=O)c1ccc(F)cc1)c1nc(-c2ccc(OC)cc2)cs1	-26.4
CCNC(=O)c1ccccc1NC(=O)c1cccc(S(=O)(=O)N2CCC(C)CC2)c1	-5.74
CCOC(=O)C1(CCCc2ccccc2)CCN(C(=O)c2cc(C)nn2CC)CC1	-7.65
Cc1ccc(C)c(S(=O)(=O)N2CCCOC2CNC(=O)C(=O)NC2CCCC2)c1 (stereo not drawn)	9.86
CCCn1c(SCC(=O)N2CCN(c3ccc(OC)cc3)CC2)nc2c1c(=O)n(C)c(=O)n2C	-19.1
COc1ccc(NC(=O)C23CC4CC(C2)CC(c2ccccc2)(C4)C3)c(OC)c1	5.92
COc1ccc([N+](=O)[O-])cc1NS(=O)(=O)Cc1ccccc1	11
COCCNC(=O)CSCc1c(F)cccc1Cl	10.7
CNC(=O)Cn1c(C)cc(=O)c2cccc(C)c21	0.817
Cc1cc(NC(=O)c2ccc(S(=O)(=O)N(C)C)cc2)n(-c2ccccn2)n1	0.686
O=C(COc1ccccc1Br)Nc1ccc2c(c1)OCCCO2	15.2
Cc1ccc(NC(=S)N2CCN(S(C)(=O)=O)CC2)cc1Cl	14.3
CC1(C)CC(CC(=O)O)(c2ccc(Cl)cc2)CCO1 (stereo not drawn)	5.39
O=C1NC(=Nc2ccc3ccccc3c2)S/C1=C/c1ccco1	9.44
Cn1cnc([N+](=O)[O-])c1Oc1cccc(O)c1	13.1
CC(=O)NC(CC(=O)Nc1nccs1)c1ccccc1.O=C(O)C(=O)O (stereo not drawn)	2.59
Cc1cc(C)cc(C(=O)N2CCC(CCC(=O)NC3CC3)CC2)c1	0.276
COc1ccc(NCCc2ccccn2)cc1.Cl	11.6
COc1ccc(C(=O)Nc2cccc(S(C)(=O)=O)c2)cc1OC	14.2
CCOC(=O)C(CC)n1cnc2sc3c(c2c1=O)CCC3 (stereo not drawn)	13.5

SMILES	hERG current change (%, negative = inhibition) at 1uM [%]
CCOC(=O)c1nnn(-c2nonc2N)c1COc1ccccc1	12.6
COc1ccc(CN(Cc2cccn2C)S(=O)(=O)c2cccc(C(F)(F)F)c2)cc1	11.8
C/C(=N\NC(=O)c1ccn(C)n1)c1ccc(NC(=O)c2cccc(F)c2)cc1	10.2
COc1ccc(OC)c(S(=O)(=O)N2c3ccccc3CC2C)c1 (stereo not drawn)	10.9
COc1ccc(NC2CC(=O)N(c3cc([N+](=O)[O-])ccc3C)C2=O)cc1 (stereo not drawn)	1.81
CCO[C@H]1OC(C(=O)N2CCN(Cc3ccccc3)CC2)=C[C@@H](c2coc3ccccc3c2=O)[C@@H]1CCCO	6.14
CCOC(=O)N1CCN(S(=O)(=O)c2ccc3c(c2)oc(=O)n3C)CC1	11.8
COc1cc(O)ccc1/C=N/NC(=O)c1ccc([N+](=O)[O-])cc1	7.63
Cc1cc(OCC(=O)OC(C)(C)C)c2c3c(c(=O)oc2c1)CCC3	9.43
COC(=O)CCCC1=CC2=CC(=O)C(C)(OC(=O)C3CCCC3)C(=O)C2=CO1 (stereo not drawn)	15.1
O=C(CN1C(=O)/C(=C/c2ccccc2F)Sc2ccccc21)N1CCN(c2ccccn2)CC1	12.8
Cc1ccc(S(=O)(=O)N(C)CC(=O)N2CCN(C(=O)c3ccco3)CC2)cc1.Cl	-29.8
COc1ccc(NC(C)=O)cc1NC(C)C(=O)Nc1cc(C(F)(F)F)ccc1N1CCOCC1 (stereo not drawn)	-13.4
O=S(=O)(c1ccccc1Cl)N1CCCC1c1nc(-c2ccc(Cl)cc2)no1 (stereo not drawn)	15.6
O=C(CN1C(=O)NC2(CCCCCCC2)C1=O)NCc1cccs1	-5.26
Cc1c(NC(=O)Nc2ccc(Cl)c(Cl)c2)sc(=S)n1C	5.23
Cc1c(NC(=S)NNC(=O)CCC(=O)O)c(=O)n(-c2ccccc2)n1C	-1.32
Cc1ccc(N(C(=O)NC2CCCCC2)C2=NCCCCC2)cc1	20.8
COc1ccc(CCNC(=O)CCC(=O)c2cccs2)cc1OC	16.7
CCCCOCCCNC(=O)N[C@H](C(=O)O)C(C)CC (stereo partly drawn)	6.97
COCCN(C(=O)c1ccc(N2CCCC2=O)cc1)c1c(N)n(Cc2ccccc2)c(=O)[nH]c1=O	9.74
COc1ccc2oc(C(=O)OCC(=O)N(C)c3c(N)n(Cc4ccccc4)c(=O)[nH]c3=O)c(C)c2c1	8.06
CCOC(=O)C(CC)Sc1nnc2n1C(C)(C)Cc1ccccc1-2 (stereo not drawn)	4.93

SMILES	hERG current change (%, negative = inhibition) at 1uM [%]
O=C(CN1CCCCC1)N1CCN(c2ccccc2)CC1	3.88
COc1ccc(N/C(C)=C/C(=O)c2ccccc2)cc1	-1.79
O=C1/C(=C/c2ccco2)CCc2ccccc21	5.8
OC(COc1cccc2ccccc12)CN1CCCC1 (stereo not drawn)	-1.17
Nn1c(SCc2ccccc2)nnc1-c1ccccn1	15.1
CC1(C)CC2(CCO1)N1CC3(C)CN2CC(C)(C1)C3=O (stereo not drawn)	0.82
CCCN(C(=O)CSc1nnnn1C)c1c(N)n(Cc2ccccc2)c(=O)[nH]c1=O	14.9
CC1=C(C(N)=O)C(c2cccnc2)n2nc(-c3cccc(Cl)c3)nc2N1 (stereo not drawn)	17.7
COc1ccc(NC(=O)Cc2ccccc2)cn1	-4.62
Cc1cccc(-c2nsc(SCC(=O)NCC3CCCO3)n2)c1 (stereo not drawn)	12.6
C/C(=N\N1CCCCC1)c1ccccc1O	13.2
CC(/C=N/Nc1nc2ccccc2[nH]1)=C\c1ccccc1	-5.45
O=C(CC(Nc1ccccc1)c1ccccc1)C1CC1 (stereo not drawn)	6.83
COc1ccccc1NS(=O)(=O)c1cc(NC(=O)c2sc3cc(Cl)ccc3c2Cl)ccc1C	14.1
C=CCc1ccccc1OCC(O)CN(C(C)C)C(C)C.Cl (stereo not drawn)	-27.1
CCOC(=O)NN1C(=O)c2ccccc2NC1c1ccc(OC)c(OC)c1 (stereo not drawn)	21.4
Cc1nc(-c2cccc(S(=O)(=O)N3CC(C)OC(C)C3)c2)cs1 (stereo not drawn)	-3.83
CCC(c1nnc(SCC(=O)NC2CCCCC2)n1Cc1ccccc1)N(C)C (stereo not drawn)	3.79
O=C(COC(=O)c1ccccn1)c1ccc(Br)cc1	8.41
CC(=O)Oc1ccc(C(=O)Nc2ccccc2C(=O)N2CCCCC2)cc1	8.98
CCOC(=O)N1CCN(C(=O)CCCn2c(=S)[nH]c3ccccc3c2=O)CC1	8.69
